In PubChem BioAssay AID1745845 (National Center for Advancing Translational Sciences (NCATS), 2022):
Screen size: about 360,000 compounds; about 2,600 (0.72%) were called active. Inconclusive means that the source gave no clear call. Such entries were picked first, then a sample of the others. Calls come from the whole dose curve; as a rule, active = well fitted inhibition curve with a large enough effect; inconclusive = small, poorly fitted or top-dose-only effect; inactive = no such curve, though single readings can be large or run the other way. Potencies of inconclusive entries are doubtful fits and often do not repeat.

Assay: Primary qHTS for Inhibitors of ATXN expression; note: nearly all actives have a fitted effect of over 55% in size
Settings: HEK-293 ATXN2-luciferase reporter, luminescence, 24 h; activity change, negative = inhibition: at 57 µM (top of the series)
Method in brief: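 ATXN2-luciferase reporter cells (luciferase flanked by upstream and downstream ATXN2 gene portions) were treated 24 h at 37 °C with compounds at up to 57 uM. SteadyGlo luminescence gave expression; GF-AFC fluorescence gave viability.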
% is set by controls: 0 for no effect and ±100 for the full control effect; potency is the fitted concentration of half-maximal effect; tags give direction and shape of the fitted curve.

Potency, inconclusive:
COc1cccc(C(=O)Nc2cccc(-c3nnc(-c4ccco4)o3)c2)c1 39.8 µM [inhibitor, single point]
CC1CCC(NC(=O)c2ccc(CSc3nc4ccncc4n3Cc3ccc(F)cc3)cc2)CC1 (configuration not stated) 39.8 µM [inhibitor, single point]
CCCCCCCCN1C(=O)[C@H](CC(=O)NCc2cccc3ccccc23)C[C@@]2(C(=O)OCC)CCCC=C12 39.8 µM [inhibitor, single point]
COc1cccc(NC(=S)N(CCc2c(C)[nH]c3ccccc23)Cc2ccco2)c1 39.8 µM [inhibitor, single point]
CCc1ccc(NC(=O)c2cc(S(=O)(=O)NC3CCCCCC3)ccc2F)cc1 25.1 µM [inhibitor, single point]
CCCCNc1c(-c2cccc(-c3ccc(OC)cc3)c2)nc2ccc(C)cn12 35.5 µM [inhibitor, single point]
O=C(COc1ccccc1Cl)NC(=S)N1CCc2ccccc21 39.8 µM [inhibitor, single point]
COc1ccc2c(c1)c(N1CCCC1=O)c(C(=O)Nc1ccc(OC)c(Cl)c1)n2C 35.5 µM [inhibitor, single point]
FC(F)(F)c1cccc(Sc2cc(C(F)(F)F)nc(-c3ccccn3)n2)c1 20 µM [inhibitor, partial curve, poor fit]
COc1ccc(-c2cc(NC(C)=O)c3ncc(-c4cc(OC)c(OC)c(OC)c4)n3c2)cn1 25.1 µM [inhibitor, partial curve, poor fit]
CC(=O)Cn1ncc(Br)c(Br)c1=O 39.8 µM [inhibitor, single point]
C=CCn1c(O)c(N=NC(=S)Nc2ccc(OC)cc2)c2ccccc21 21.2 µM [inhibitor, partial curve, poor fit]
NC(Cc1ccc(C(F)(F)F)cc1)c1csc(NC(=O)Nc2ccccc2Cc2ccccc2)n1 (configuration not stated) 39.8 µM [inhibitor, single point]
Cc1c(CCC(=O)N2CCC(C(=O)O)(c3ccccc3)CC2)c(=O)oc2cc3oc4c(c3cc12)CCCC4 3.98 µM [inhibitor, partial curve, poor fit]

Activity change, negative = inhibition, inactive:
CCOc1ccc(NC(=O)CSc2ccc(-c3ccccn3)nn2)cc1 -24.8%
CCC(CC)C(=O)N(C)c1c(C)nc2c(OCc3ccc(C#N)cc3)cccn12 7.27%
Cc1ccc2c(c1)cc(CN(Cc1ccc3c(c1)OCO3)C(=O)c1ccccc1)c1nnnn12 -4.77%
